Laboratory results from PubChem BioAssay (Tox21).
Several values for one entry are separate records, joined by “and”; a condition that tells them apart may be missing. Equal entries are not always repeated. Inconclusive means that the source gave no clear call. Such entries were picked first, then a sample of the others. For some of these results: A potency beside an inconclusive call is a rough fit, not a confirmed value. More than one record can exist for a structure, and the calls need not agree. Activity calls are given as the source filed them. Unless noted, the call rests on the fitted dose curve; in most records, active means well fitted curve in the direction sought with a large enough effect in the repeat runs; inconclusive means weak or mixed curves; inactive means no such curve, though single readings can be large; an effect the other way counts as inactive or inconclusive.

Tests used:
[1] = target: Thyrotropin-releasing hormone receptor (Homo sapiens) (UniProt P34981); assay: qHTS assay to identify small molecule antagonists of the thyrotropin-releasing hormone receptor (TRHR) signaling pathway (AID 1346877; active means well fitted inhibition curve with a large enough effect in the repeat runs, not every such curve was filed as active; inconclusive means weak or mixed curves; further: potency means the concentration at half of the fitted maximal effect; on activity, negative = inhibition: on the % scale 0 is the no-effect control and ±100 the full control effect)
Sequence of UniProt P34981 (P34981 whole entry, looked up): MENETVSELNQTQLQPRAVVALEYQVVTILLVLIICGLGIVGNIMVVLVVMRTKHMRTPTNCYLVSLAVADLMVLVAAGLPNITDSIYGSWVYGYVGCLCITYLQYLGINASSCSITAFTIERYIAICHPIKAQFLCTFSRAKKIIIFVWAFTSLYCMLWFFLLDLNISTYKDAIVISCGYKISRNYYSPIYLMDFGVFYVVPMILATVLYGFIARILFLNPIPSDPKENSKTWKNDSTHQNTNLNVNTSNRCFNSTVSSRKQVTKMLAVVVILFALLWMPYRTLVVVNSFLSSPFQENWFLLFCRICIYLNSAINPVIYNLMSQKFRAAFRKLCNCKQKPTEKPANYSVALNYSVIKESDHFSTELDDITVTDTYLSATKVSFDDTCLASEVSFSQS
Outline: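 TRHR-expressing HEK293 cells loaded with calcium dye for 2 h at 37 C; compounds pre-incubated 5 min at room temperature before TRH challenge at 1 nM final. Intracellular calcium fluorescence read kinetically for 3 min; 15 concentrations in triplicate.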

[2] = qHTS assay to identify small molecule antagonists of the estrogen receptor beta (ER-beta) signaling pathway - cell viability counter screen (AID 1259382); further: nearly all actives have a fitted effect of over 55% in size; further: potency means the concentration at half of the fitted maximal effect;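 on activity change, negative = cytotoxicity: HEK293T cells carrying ER-beta-UAS-bla reporter stimulated with estradiol; on the % scale 0 is the no-effect control and ±100 the full control effect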
Outline: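 ER-beta-UAS-bla HEK293T cells in 2% charcoal-stripped FBS medium, treated with compound plus 1 nM 17-beta-estradiol for 16 h at 37C. Viability read by CellTiter-Glo luminescence after 30 min at room temperature in the same wells.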

[3] = qHTS assay to identify small molecule agonists of the progesterone receptor (PR) signaling pathway - cell viability counter screen (AID 1346799; calls by dose curve; further: potency means the concentration at half of the fitted maximal effect; nearly all actives have a fitted effect of over 45% in size)
Outline: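 Viability was scored by ATP luminescence (CellTiter-Glo, 30 min, room temperature) in the same wells used for the reporter readout, after 16 hr compound exposure of PR-UAS-bla HEK293T cells.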

[4] = target: Progesterone receptor (Homo sapiens) (UniProt P06401); assay: qHTS assay to identify small molecule antagonists of the progesterone receptor (PR) signaling pathway (AID 1346795; active means well fitted inhibition curve with a large enough effect in the signal ratio in the repeat runs, not every such curve was filed as active; inconclusive means weak or mixed curves; the % refers to the signal ratio; further: potency means the concentration at half of the fitted maximal effect; on activity change, negative = inhibition: on the % scale 0 is the no-effect control and ±100 the full control effect); settings: PR-UAS-bla HEK293T, beta-lactamase FRET ratio, 16 h; activity change, negative = inhibition: at 92.4 µM (top of the series) unless noted
Sequence of UniProt P06401 (P06401 whole entry, looked up): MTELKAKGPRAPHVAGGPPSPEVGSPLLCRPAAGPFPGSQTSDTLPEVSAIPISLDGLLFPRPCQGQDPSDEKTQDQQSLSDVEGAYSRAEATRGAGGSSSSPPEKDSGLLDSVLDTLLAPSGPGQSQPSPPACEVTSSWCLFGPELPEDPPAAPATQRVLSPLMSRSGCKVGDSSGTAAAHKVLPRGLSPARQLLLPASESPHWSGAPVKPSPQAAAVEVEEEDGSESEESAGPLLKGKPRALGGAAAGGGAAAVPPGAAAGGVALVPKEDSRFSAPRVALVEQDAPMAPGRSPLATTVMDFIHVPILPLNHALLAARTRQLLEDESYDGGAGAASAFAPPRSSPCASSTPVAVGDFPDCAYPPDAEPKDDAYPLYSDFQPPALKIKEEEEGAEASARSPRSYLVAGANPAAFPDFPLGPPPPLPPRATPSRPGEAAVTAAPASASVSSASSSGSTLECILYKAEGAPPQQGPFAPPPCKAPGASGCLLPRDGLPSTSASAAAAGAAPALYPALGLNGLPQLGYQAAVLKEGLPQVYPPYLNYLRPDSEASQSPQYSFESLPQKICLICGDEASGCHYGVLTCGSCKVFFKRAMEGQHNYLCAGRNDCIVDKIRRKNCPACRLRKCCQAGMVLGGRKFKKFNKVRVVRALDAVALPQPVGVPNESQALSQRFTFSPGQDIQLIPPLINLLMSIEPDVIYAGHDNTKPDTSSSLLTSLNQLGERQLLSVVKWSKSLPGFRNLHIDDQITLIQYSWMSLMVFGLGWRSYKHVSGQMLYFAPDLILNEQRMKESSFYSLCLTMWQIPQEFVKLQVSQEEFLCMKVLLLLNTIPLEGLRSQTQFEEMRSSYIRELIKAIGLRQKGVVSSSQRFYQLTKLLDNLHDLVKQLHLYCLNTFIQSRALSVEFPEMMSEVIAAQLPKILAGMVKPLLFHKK
Outline: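 After 6 hr plating at 37C in 2% stripped-serum medium, PR-UAS-bla HEK293T cells got compounds, then 1 nM R5020. Sixteen hours later, LiveBLAzer substrate was applied for 2 hr at room temperature and fluorescence was recorded.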

[5] = qHTS assay to identify small molecule antagonists of the progesterone receptor (PR) signaling pathway - cell viability counter screen (AID 1346798); further: potency means the concentration at half of the fitted maximal effect; nearly all actives have a fitted effect of over 50% in size
Outline: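 Viability was determined by ATP-based luminescence (CellTiter-Glo) in PR-UAS-bla HEK293T cells cultured in 2% charcoal-stripped serum and incubated 16 hr with compounds under R5020 stimulation.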

[6] = target: Thyrotropin receptor (Homo sapiens) (UniProt P16473); assay: qHTS assay to identify small molecule antagonists of the thyroid stimulating hormone receptor (TSHR) signaling pathway (AID 1259385; calls by dose curve; further: nearly all actives have a fitted effect of over 20% in size; further: potency means the concentration at half of the fitted maximal effect; on activity change, negative = inhibition: on the % scale 0 is the no-effect control and ±100 the full control effect); settings: TSHR-HEK293 cAMP HTRF, TSH-stimulated antagonist mode; activity change, negative = inhibition: at 92.4 µM (top of the series) unless noted
Sequence of UniProt P16473 (P16473 whole entry, looked up): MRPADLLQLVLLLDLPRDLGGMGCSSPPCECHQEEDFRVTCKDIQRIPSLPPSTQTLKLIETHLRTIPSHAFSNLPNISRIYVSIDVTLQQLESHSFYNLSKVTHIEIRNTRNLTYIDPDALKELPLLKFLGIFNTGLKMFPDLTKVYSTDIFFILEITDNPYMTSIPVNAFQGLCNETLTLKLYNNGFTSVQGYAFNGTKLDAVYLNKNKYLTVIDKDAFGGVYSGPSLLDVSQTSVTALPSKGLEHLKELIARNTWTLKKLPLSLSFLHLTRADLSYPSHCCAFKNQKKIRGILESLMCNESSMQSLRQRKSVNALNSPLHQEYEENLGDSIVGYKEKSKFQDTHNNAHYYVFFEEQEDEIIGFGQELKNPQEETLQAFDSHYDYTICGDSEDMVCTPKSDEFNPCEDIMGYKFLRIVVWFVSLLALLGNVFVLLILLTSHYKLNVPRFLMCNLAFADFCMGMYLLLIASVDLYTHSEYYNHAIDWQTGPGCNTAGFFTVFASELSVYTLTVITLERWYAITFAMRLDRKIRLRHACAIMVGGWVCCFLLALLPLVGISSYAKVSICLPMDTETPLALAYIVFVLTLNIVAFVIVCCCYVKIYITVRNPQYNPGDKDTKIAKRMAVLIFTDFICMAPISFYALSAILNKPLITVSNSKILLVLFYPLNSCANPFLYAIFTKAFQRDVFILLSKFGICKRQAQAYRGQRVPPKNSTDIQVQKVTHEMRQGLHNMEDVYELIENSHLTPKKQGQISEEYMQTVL
Outline: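 TSHR-HEK293 cells (800/well) plated 18 h, then compounds with Ro20-1724 and TSH at 1.5 ng/mL final, 30 min at room temperature. cAMP quantified by HTRF (cAMP-d2/anti-cAMP-cryptate, 1 h); 15 concentrations in triplicate.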

[7] = target: Progesterone receptor (Homo sapiens) (UniProt P06401); assay: qHTS assay to identify small molecule agonists of the progesterone receptor (PR) signaling pathway (AID 1346784; calls by dose curve; further: on the % scale 0 is the no-effect control and ±100 the full control effect; nearly all actives have a fitted effect of over 30% in size); settings: PR-UAS-bla HEK293T, beta-lactamase FRET ratio, 16 h; activation: at 92.4 µM (top of the series) unless noted
Outline: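 The screen uses PR-UAS-bla HEK 293T cells in charcoal-stripped serum (2%). Compounds are applied for 16 hr at 37C after a 6 hr pre-incubation, and reporter activity is detected with a FRET beta-lactamase substrate after 2 hr at room temperature.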

[8] = qHTS assay to identify small molecule antagonists of the TGF-beta/Smad signaling pathway - cell viability counter screen (AID 1346824); further: potency means the concentration at half of the fitted maximal effect; nearly all actives have a fitted effect of over 50% in size
Outline: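 SBE-bla HEK 293T cells, incubated overnight, then compound plus 0.25 ng/mL TGF-beta1 (stock added) for 5 hr at 37 C. Viability was read in the same wells by CellTiter-Glo luminescence after 30 min at room temperature.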

[9] = qHTS assay to identify small molecule agonists of the TGF-beta/Smad signaling pathway - cell viability counter screen (AID 1346829); further: potency means the concentration at half of the fitted maximal effect; nearly all actives have a fitted effect of over 45% in size
Outline: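 After overnight seating at 37 C and 5% CO2, reporter cells got compounds for 5 hr and FRET substrate for 2 hr; cell viability then came from CellTiter-Glo luminescence.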

[10] = qHTS assay to identify small molecule agonists of the TGF-beta/Smad signaling pathway (AID 1346859; active means well fitted activation curve with a large enough effect in the signal ratio in the repeat runs, not every such curve was filed as active; inconclusive means weak or mixed curves; the % refers to the signal ratio; further: potency means the concentration at half of the fitted maximal effect); settings: SBE-bla HEK293T, TGF-beta/Smad beta-lactamase reporter, 5 h; activation: at 76.8 µM (top of the series) unless noted
Outline: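 Dual-wavelength fluorescence (460/530 nm emission) quantified beta-lactamase expression under the Smad binding element in HEK 293T cells following 5 hr compound treatment at 37 C.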

[11] = qHTS assay to identify small molecule antagonists of the TGF-beta/Smad signaling pathway (AID 1346924; active means well fitted inhibition curve with a large enough effect in the signal ratio in the repeat runs, not every such curve was filed as active; inconclusive means weak or mixed curves; the % refers to the signal ratio; further: potency means the concentration at half of the fitted maximal effect); settings: SBE-bla HEK293T, TGF-beta/Smad reporter, beta-lactamase ratio; activity, negative = inhibition: at 76.8 µM (top of the series) unless noted
Outline: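 SBE-bla HEK 293T cells were plated overnight, then received compound in DMSO plus TGF-beta1 (added as a 0.25 ng/mL solution) and were incubated 5 h at 37 C. Beta-lactamase reporter activity was read after 2 h at room temperature with LiveBLAzer B/G FRET substrate (ex 405, em 460/530 nm).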

[12] = qHTS assay to identify small molecule agonists or antagonists of the thyroid stimulating hormone receptor (TSHR) signaling pathway - wild type cell line counter screen (AID 1259384; calls by dose curve; further: potency means the concentration at half of the fitted maximal effect); settings: HEK293 wild type, cAMP HTRF counter-screen; cAMP activity change: at 92.4 µM (top of the series), active compounds read high unless noted
Outline: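 Wild-type Hek293 cells, 800/well, 18 h at 37C, then compound with Ro20-1724 for 30 min RT. cAMP by HTRF (cAMP-d2/anti-cAMP cryptate), 1 h RT, fluorescence read. 15 concentrations, triplicates.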

[13] = target: Estrogen receptor (Homo sapiens) (UniProt P03372); assay: qHTS assay to identify small molecule agonists of the estrogen receptor alpha (ER-alpha) signaling pathway in the presence of an antagonist (AID 1259383; calls by dose curve; further: top concentration of the series differs between compounds; on the % scale 0 is the no-effect control and ±100 the full control effect; nearly all actives have a fitted effect of over 15% in size)
Sequence of UniProt P03372 (P03372 whole entry, looked up): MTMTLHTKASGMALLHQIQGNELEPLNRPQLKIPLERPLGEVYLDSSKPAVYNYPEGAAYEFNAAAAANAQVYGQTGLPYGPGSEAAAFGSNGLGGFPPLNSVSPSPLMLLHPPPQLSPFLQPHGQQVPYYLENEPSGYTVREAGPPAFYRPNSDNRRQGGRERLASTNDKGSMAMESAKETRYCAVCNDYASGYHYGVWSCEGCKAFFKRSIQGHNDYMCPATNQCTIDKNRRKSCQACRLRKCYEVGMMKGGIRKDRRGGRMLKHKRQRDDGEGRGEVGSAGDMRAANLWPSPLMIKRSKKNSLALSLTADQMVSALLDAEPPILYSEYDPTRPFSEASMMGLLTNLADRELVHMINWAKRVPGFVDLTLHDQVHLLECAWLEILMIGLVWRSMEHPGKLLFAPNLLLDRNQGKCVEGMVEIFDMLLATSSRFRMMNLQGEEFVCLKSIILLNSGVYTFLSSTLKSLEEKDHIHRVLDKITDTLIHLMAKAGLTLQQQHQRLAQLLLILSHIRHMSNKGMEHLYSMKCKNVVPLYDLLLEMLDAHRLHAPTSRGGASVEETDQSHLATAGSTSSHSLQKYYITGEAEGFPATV
Outline: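 VM7Luc4E2 cells express endogenous full-length ER-alpha with an ERE-luciferase reporter and were hormone-deprived for 5 days. Compounds at 15 concentrations were added with 10.0nM ICI-182,780 for 22hr at 37C. Luminescence was read with ONE-Glo.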

[14] = qHTS assay to identify small molecule agonists of the estrogen receptor alpha (ER-alpha) signaling pathway in the presence of an antagonist - cell viability counter screen (AID 1259386);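 further: cells exposed to compounds for 22 h at 37 °C before the viability read; nearly all actives have a fitted effect of over 30% in size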; further: potency means the concentration at half of the fitted maximal effect
Outline: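 Cell viability in VM7Luc4E2 cells (endogenous full-length ER-alpha) measured by CellTiter-Fluor fluorescence in the same wells as the luciferase screen. Cells pre-cultured 5 days in charcoal-stripped serum, then treated 22 h with compounds at 15 concentrations plus 10.0nM ICI-182,780.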

[15] = target: Thyrotropin-releasing hormone receptor (Homo sapiens) (UniProt P34981); assay: qHTS assay to identify small molecule agonists of the thyrotropin-releasing hormone receptor (TRHR) signaling pathway (AID 1346891; calls by dose curve; further: potency means the concentration at half of the fitted maximal effect)
Outline: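 Kinetic fluorescence (3 min, 1 s intervals) reported intracellular calcium after compound transfer onto TRHR-Hek293 cells pre-loaded with dye for 2 h at 37 °C.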
Tags describe the fitted curve by direction and shape or compound fluorescence and quenching.

Structure (SMILES): Cc1cccc(OCCOc2cccc(C)c2)c1
- Potency [1]: inactive

Structure (SMILES): O=C(O)c1cccnc1C(=O)O
- Potency [2]: inactive

Structure (SMILES): CC1=C(/C=C/C(C)=C/C=C/C(C)=C/C(=O)O)C(C)(C)CCC1
- Potency [2]: inconclusive: 21.7 µM [cytotoxic, partial curve] and inconclusive: 10.6 µM [cytotoxic, single point]
- Potency [3]: inconclusive: 27.3 µM [cytotoxic, single point] and inconclusive: 3.35 µM [cytotoxic, single point]
- Potency [1]: inconclusive: 37.9 µM [inhibitor, single point]

Structure (SMILES): C[Si]1(C)O[Si](C)(C)O[Si](C)(C)O[Si](C)(C)O[Si](C)(C)O1
- Potency [2]: inactive
- activity change, negative = inhibition [4]: inconclusive: 1.13%
- Potency [5]: inconclusive: 4.86 µM [cytotoxic, full curve, poor fit]

Structure (SMILES): CCOc1ccccc1C(N)=O
- Potency [2]: inactive
- Potency [4]: active: 26.6 µM

Structure (SMILES): COc1ccc2cc(S(=O)(=O)N[C@H](CC(=O)N[C@H](Cc3ccc(CN4[C@H](C)CCC[C@@H]4C)cc3)C(=O)N(C)C(C)C)c3ccc4c(c3)OCO4)ccc2c1
- Potency [2]: active: 29 µM
- Potency [6]: active: 57.9 µM
- Potency [7]: inactive
- Potency [4]: active: 57.9 µM
- Potency [5]: inconclusive: 25.8 µM [cytotoxic, partial curve, poor fit]
- Potency [8]: inconclusive: 52 µM [cytotoxic, single point]
- Potency [9]: inconclusive: 58.3 µM [cytotoxic, single point]
- Potency [10]: inconclusive: 52 µM

Structure (SMILES): CC(=O)C1C(=O)C=C(C)OC1=O (centres undefined)
- Potency [2]: inactive
- Potency [7]: inactive

Structure (SMILES): CN1CCN(CCCN2c3ccccc3Sc3ccc(S(=O)(=O)N(C)C)cc32)CC1
- Potency [2]: active: 23.7 µM
- Potency [6]: active: 29.8 µM
- activity change, negative = inhibition [4]: inconclusive: -34.6% [at 42.5 µM]
- Potency [5]: active: 13.3 µM
- Potency [3]: active: 6.68 µM
- activity, negative = inhibition [11]: inconclusive: -16.6% [at 35.3 µM]

Structure (SMILES): COc1cc(O)c(C(=O)c2ccccc2)cc1S(=O)(=O)O
- Potency [2]: inactive
- Potency [1]: inactive

Structure (SMILES): CC(C)(C)NCC(O)c1ccc(O)c(CO)c1 (centres undefined)
- Potency [12]: active: 15.8 nM and active: 37.6 nM

Structure (SMILES): OCC(O)CN1CCN(c2ccccc2)CC1 (centres undefined)
- Potency [6]: inactive

Structure (SMILES): O=c1[nH]c2ccc(Cl)cc2o1
- Potency [13]: inactive

Structure (SMILES): CC(CCC(=O)O)C(=O)O (centres undefined)
- Potency [2]: inactive
- Potency [4]: inactive

Structure (SMILES): Cc1c(C2(c3cc(Br)c(O)c(Br)c3C)OS(=O)(=O)c3ccccc32)cc(Br)c(O)c1Br
- Potency [2]: inconclusive: 37.4 µM [cytotoxic, partial curve]
- Potency [12]: inconclusive: 3.74 µM [falling, full curve]
- Potency [6]: inconclusive: 3.34 µM [falling, full curve]
- Potency [14]: active: 13.3 µM
- Potency [4]: inconclusive: 23.6 µM
- Potency [5]: active: 18.8 µM
- Potency [3]: inconclusive: 18.8 µM [cytotoxic, partial curve]
- activity, negative = inhibition [11]: inconclusive: -43.6%

Structure (SMILES): N[C@@H](C(=O)N[C@@H]1C(=O)N2C(C(=O)O)=C(Cl)CS[C@H]12)c1ccccc1
- activity change, negative = cytotoxicity [2]: inactive: 5.71% [at 8.39 µM]
- activity change, negative = cytotoxicity [14]: inactive: -0.6% [at 8.39 µM]

Structure (SMILES): OC/C(Br)=C(\Br)CO
- Potency [2]: inactive
- Potency [6]: inconclusive: 2.71 µM [falling, single point]
- Potency [4]: inactive

Structure (SMILES): NCCS(=O)(=O)O
- Potency [12]: inconclusive: 35.7 µM [falling, partial curve, poor fit]
- Potency [6]: inconclusive: 31.8 µM [falling, partial curve]

Structure (SMILES): CNCC(O)c1ccc(O)c(O)c1 (centres undefined)
- Potency [12]: inconclusive: 9.44 µM

Structure (SMILES): NS(=O)(=O)c1cc(C(=O)O)cc(N2CCCC2)c1Oc1ccccc1
- Potency [2]: inactive
- Potency [14]: inactive

Structure (SMILES): Nc1cc(S(=O)(=O)O)cc2cc(S(=O)(=O)O)cc(O)c12
- Potency [2]: inconclusive: 5.45 µM [cytotoxic, full curve]
- Potency [4]: inconclusive: 15.4 µM
- Potency [5]: inconclusive: 3.86 µM [cytotoxic, full curve]
- Potency [3]: inconclusive: 24.2 µM [cytotoxic, single point] and inconclusive: 4.86 µM [cytotoxic, full curve]

Structure (SMILES): CCCCCCCCCCCCCC[n+]1ccccc1
- Potency [2]: active: 61.1 µM
- Potency [6]: inactive
- activation [7]: inconclusive: -17.7%
- Potency [4]: inconclusive: 43.3 µM
- Potency [8]: active: 54.9 µM
- Potency [9]: inconclusive: 69.2 µM [cytotoxic, partial curve, poor fit]
- Potency [1]: inconclusive: 33.8 µM [inhibitor]
- Potency [15]: inconclusive: 38.9 µM [activator, single point]
- Potency [11]: inconclusive: 49 µM [partial curve]
